The results in this text go back to the BET-seq Pho4 binding data (Le et al. 2018).

The other results are listed elsewhere or left out. The energies were worked out here from pooled read counts, against the library average; single values are noisy.

This assay has as its target T1, Pho4 (S. cerevisiae) (UniProt P07270).
T1 sequence: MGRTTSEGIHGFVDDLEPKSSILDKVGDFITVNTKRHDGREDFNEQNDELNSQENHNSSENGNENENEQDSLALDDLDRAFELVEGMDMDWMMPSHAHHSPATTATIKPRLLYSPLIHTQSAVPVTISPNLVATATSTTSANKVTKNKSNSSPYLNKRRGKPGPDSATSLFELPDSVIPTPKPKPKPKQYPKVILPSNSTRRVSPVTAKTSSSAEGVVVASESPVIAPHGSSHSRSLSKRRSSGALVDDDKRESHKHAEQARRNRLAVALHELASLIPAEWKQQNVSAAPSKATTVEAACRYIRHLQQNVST
Description: relative binding free energy (BET-seq); higher = weaker binding. Conditions: reference: library average.
Turning to AGGATCACGTGATAGT, the “relative binding free energy” value was determined as 0.11 kcal/mol.

On to TGGAGCACGTGGAAGA, for which the “relative binding free energy” value was -0.03 kcal/mol.

Regarding GGCGGCACGTGAATAG, the “relative binding free energy” value is 0.18 kcal/mol.

Consider TATTTCACGTGTTTGG, for which the “relative binding free energy” value came out at 0.25 kcal/mol.

Consider GTGGCCACGTGTGCTG, for which the “relative binding free energy” value is -0.09 kcal/mol.

For GTGATCACGTGTAAGT, the “relative binding free energy” value was 0.28 kcal/mol.

Consider ATAAGCACGTGGTGCA, for which the “relative binding free energy” value stood at 0.04 kcal/mol.

With GGTTGCACGTGCTGTC, the “relative binding free energy” value is -0.03 kcal/mol.

As to GCTTTCACGTGCTGGG, the “relative binding free energy” value amounted to 0.24 kcal/mol.

Regarding ATTACCACGTGTATGG, the “relative binding free energy” value was 0 kcal/mol.

As for GTTATCACGTGGGTTA, the “relative binding free energy” value is 0.01 kcal/mol.

In the case of ACGAGCACGTGTGTTG, the “relative binding free energy” value was -0.07 kcal/mol.

Take GTTATCACGTGTGCTA: the “relative binding free energy” value was found to be 0.05 kcal/mol.

Turning to GTGCCCACGTGGTGGT, the “relative binding free energy” value is -0.18 kcal/mol.

Consider TGTGTCACGTGCCCGG, for which the “relative binding free energy” value came to 0.07 kcal/mol.

Turning to GTGGGCACGTGGCAAA, the “relative binding free energy” value stood at 0.02 kcal/mol.

Regarding TTTAGCACGTGGCGCT, the “relative binding free energy” value was -0.25 kcal/mol.

Take GGACTCACGTGTAGTT: the “relative binding free energy” value was found to be 0.29 kcal/mol.

For the sequence AGAGCCACGTGGGGTG, the “relative binding free energy” value was -0.4 kcal/mol.

Consider TTGTTCACGTGTAAAT, for which the “relative binding free energy” value amounted to 0.28 kcal/mol.

Turning to CGATTCACGTGCTGGG, the “relative binding free energy” value was found to be 0.22 kcal/mol.

Regarding ATGTGCACGTGCGGTA, the “relative binding free energy” value is -0.1 kcal/mol.

Take GAGGTCACGTGGGTAC: the “relative binding free energy” value amounted to 0.11 kcal/mol.

On to TGTAACACGTGTTTTT, for which the “relative binding free energy” value is -0.02 kcal/mol.

For the sequence AATAACACGTGTTTGG, the “relative binding free energy” value was determined as 0.01 kcal/mol.

In the case of TTCTTCACGTGGGGGC, the “relative binding free energy” value was found to be 0.28 kcal/mol.

For the sequence TTTATCACGTGCTTTG, the “relative binding free energy” value amounted to 0.11 kcal/mol.

On to AAGTGCACGTGTAAGG, for which the “relative binding free energy” value is -0.08 kcal/mol.

For TGGTACACGTGGAGAA, the “relative binding free energy” value is 0.13 kcal/mol.

TTCGGCACGTGTGTCG: the “relative binding free energy” value is -0.01 kcal/mol.

For the sequence GTCTTCACGTGAAGTT, the “relative binding free energy” value was found to be 0.33 kcal/mol.

As to GCGGACACGTGATTGG, the “relative binding free energy” value is 0.27 kcal/mol.

Take TACTGCACGTGTTGTA: the “relative binding free energy” value was -0.13 kcal/mol.

For AGGACCACGTGGGTAT, the “relative binding free energy” value is -0.17 kcal/mol.

AGTAGCACGTGTTAAG: the “relative binding free energy” value was -0.01 kcal/mol.

With TTCGGCACGTGGGGCC, the “relative binding free energy” value was -0.23 kcal/mol.

For AGTGTCACGTGCGTTA, the “relative binding free energy” value was -0.11 kcal/mol.

On to ATAGACACGTGGTGCT, for which the “relative binding free energy” value was -0.05 kcal/mol.

Consider TACATCACGTGATATT, for which the “relative binding free energy” value was 0.28 kcal/mol.

With GGTGGCACGTGGTGCA, the “relative binding free energy” value is -0.19 kcal/mol.

As for TGTGCCACGTGAAAGG, the “relative binding free energy” value came to 0.24 kcal/mol.

As to TGCAACACGTGAGGGT, the “relative binding free energy” value came to 0.31 kcal/mol.

In the case of ATTTTCACGTGTCAAT, the “relative binding free energy” value was determined as 0.29 kcal/mol.

Consider GTGTGCACGTGATGAC, for which the “relative binding free energy” value was 0.12 kcal/mol.

Regarding TATTTCACGTGGGCAG, the “relative binding free energy” value is 0.05 kcal/mol.

As for GGTTACACGTGATTGC, the “relative binding free energy” value is 0.37 kcal/mol.

As for TGGGTCACGTGCATTG, the “relative binding free energy” value came out at 0.12 kcal/mol.

In the case of GTTGGCACGTGATTGC, the “relative binding free energy” value amounted to 0.2 kcal/mol.

Regarding TGTATCACGTGAAAGG, the “relative binding free energy” value came out at 0.36 kcal/mol.

As to GGTCGCACGTGTCGGG, the “relative binding free energy” value was determined as 0.07 kcal/mol.

As to TTGGGCACGTGGAGGT, the “relative binding free energy” value is -0.06 kcal/mol.

GTGTACACGTGGGTGA: the “relative binding free energy” value came out at 0 kcal/mol.

Regarding GGGGGCACGTGATCAT, the “relative binding free energy” value was -0.11 kcal/mol.

As for GGGCGCACGTGGGACG, the “relative binding free energy” value is -0.12 kcal/mol.

As for TGAGACACGTGAAGTT, the “relative binding free energy” value stood at 0.4 kcal/mol.

With TTGGACACGTGGATTG, the “relative binding free energy” value was determined as 0.12 kcal/mol.

Regarding ATGCTCACGTGAGTTT, the “relative binding free energy” value came to 0.36 kcal/mol.

For AGTTTCACGTGATGGC, the “relative binding free energy” value was 0.35 kcal/mol.

In the case of TTTTACACGTGTATTC, the “relative binding free energy” value turned out to be 0.1 kcal/mol.

For the sequence GGTCGCACGTGGTATA, the “relative binding free energy” value is -0.06 kcal/mol.

Turning to ATTTGCACGTGATGTC, the “relative binding free energy” value stood at 0.02 kcal/mol.

For the sequence TTACACACGTGGGTAG, the “relative binding free energy” value was -0.16 kcal/mol.

With AGCTCCACGTGGGGTG, the “relative binding free energy” value was -0.14 kcal/mol.

Turning to TAATTCACGTGTTTGT, the “relative binding free energy” value was 0.25 kcal/mol.

On to AGTTGCACGTGCATTT, for which the “relative binding free energy” value was -0.06 kcal/mol.

CGGAGCACGTGTTGTA: the “relative binding free energy” value was -0.16 kcal/mol.

As for TTTGTCACGTGGGACC, the “relative binding free energy” value is 0.17 kcal/mol.

Turning to TATTGCACGTGGGGGG, the “relative binding free energy” value was -0.18 kcal/mol.

As for GGGGACACGTGGAGAG, the “relative binding free energy” value was determined as 0 kcal/mol.

For the sequence ACTTTCACGTGTTATT, the “relative binding free energy” value stood at 0.21 kcal/mol.

On to GACGTCACGTGTTTAT, for which the “relative binding free energy” value is 0.18 kcal/mol.

In the case of AAATGCACGTGTTTTT, the “relative binding free energy” value is -0.02 kcal/mol.

Regarding ATAATCACGTGTTATT, the “relative binding free energy” value was 0.1 kcal/mol.

As for TATGTCACGTGTAAGC, the “relative binding free energy” value amounted to 0.23 kcal/mol.

On to ACGATCACGTGTGTTG, for which the “relative binding free energy” value stood at 0.11 kcal/mol.

As for GAGGGCACGTGCGGGA, the “relative binding free energy” value is -0.31 kcal/mol.

Consider GGAGTCACGTGGGTAC, for which the “relative binding free energy” value was 0.02 kcal/mol.

Regarding AGCTTCACGTGTAGGG, the “relative binding free energy” value is 0.13 kcal/mol.

Consider GTTGGCACGTGGCAAT, for which the “relative binding free energy” value is -0.1 kcal/mol.

Consider GTCGACACGTGCGTGG, for which the “relative binding free energy” value came out at 0.02 kcal/mol.

On to AATGGCACGTGGAAGA, for which the “relative binding free energy” value amounted to 0.03 kcal/mol.

Regarding TGTCTCACGTGGTTAT, the “relative binding free energy” value was determined as 0.04 kcal/mol.

For TTGTTCACGTGGATTA, the “relative binding free energy” value was 0.26 kcal/mol.

With TGTGGCACGTGGTCTT, the “relative binding free energy” value is -0.11 kcal/mol.

As for GATGGCACGTGTTGTA, the “relative binding free energy” value was found to be 0.08 kcal/mol.

Turning to CTGAACACGTGGATGT, the “relative binding free energy” value is 0.15 kcal/mol.

For TGTCACACGTGTGTTT, the “relative binding free energy” value turned out to be 0.1 kcal/mol.

Regarding TCGAACACGTGTGTTT, the “relative binding free energy” value was 0.07 kcal/mol.

As to ATGTTCACGTGGGTGT, the “relative binding free energy” value turned out to be 0.19 kcal/mol.

Regarding TAATGCACGTGGTGAA, the “relative binding free energy” value is -0.11 kcal/mol.

For CGTTACACGTGTCTGT, the “relative binding free energy” value is 0.03 kcal/mol.

With AGTGTCACGTGTGCCG, the “relative binding free energy” value was 0.17 kcal/mol.

Regarding GCGTGCACGTGTGTGG, the “relative binding free energy” value was -0.02 kcal/mol.

Take ATTTTCACGTGAGTTG: the “relative binding free energy” value came to 0.47 kcal/mol.

For the sequence GTATTCACGTGGCTTG, the “relative binding free energy” value was determined as 0.27 kcal/mol.

Regarding ACGTGCACGTGGAGTT, the “relative binding free energy” value is -0.08 kcal/mol.

For the sequence CGGTCCACGTGTTTGG, the “relative binding free energy” value came to 0.01 kcal/mol.

For TTAATCACGTGGTGTC, the “relative binding free energy” value was 0.07 kcal/mol.

As to TTCTTCACGTGGGATC, the “relative binding free energy” value was determined as 0.32 kcal/mol.

Turning to CGGTTCACGTGGTTGA, the “relative binding free energy” value amounted to 0.09 kcal/mol.

In the case of AGTATCACGTGCAGGC, the “relative binding free energy” value is 0.2 kcal/mol.

Consider CTCGGCACGTGTGGGT, for which the “relative binding free energy” value is -0.1 kcal/mol.

As for TTTAGCACGTGATCTT, the “relative binding free energy” value is -0.02 kcal/mol.

For the sequence TGGATCACGTGGTCGG, the “relative binding free energy” value came out at 0.12 kcal/mol.

In the case of AGTGCCACGTGGAGGA, the “relative binding free energy” value is -0.16 kcal/mol.

In the case of TTATGCACGTGTGGAC, the “relative binding free energy” value is 0.1 kcal/mol.

Regarding TTTCTCACGTGTGGGG, the “relative binding free energy” value was found to be 0.24 kcal/mol.

For the sequence GGCGTCACGTGTCGGA, the “relative binding free energy” value was 0.13 kcal/mol.

Regarding GGTCTCACGTGAGTTA, the “relative binding free energy” value worked out at 0.56 kcal/mol.

Turning to ATCTGCACGTGAGTGT, the “relative binding free energy” value was found to be 0.08 kcal/mol.

On to ACTTGCACGTGGTTGG, for which the “relative binding free energy” value was -0.05 kcal/mol.

As to GCGGTCACGTGAGGAG, the “relative binding free energy” value was 0.21 kcal/mol.

Turning to TTCGACACGTGGAGAT, the “relative binding free energy” value is 0.34 kcal/mol.

As to AGGCGCACGTGACGGG, the “relative binding free energy” value stood at 0.11 kcal/mol.

In the case of TTGGGCACGTGGACGG, the “relative binding free energy” value worked out at 0.02 kcal/mol.
